Laboratory results from the RNAGym collection of RNA variant scans (doi:10.7554/elife.90254).
The source gives no read counts; variants with many changes may rest on few reads.

B1: LINE1-mini (parent)
chain: GGCAGAGCUCAACACAGCGUGGCAAAGUGGCUGUGGCUAGACUGCC

Variants of: B1
Test: self-cleavage, relative activity (ratio to wild type); higher = more cleavage; in vitro, sequencing; the parent is a self-cleaving ribozyme

Variant | self-cleavage
UUCAGAGCUCAACAAAGCGUGGCAAAGUUGCUGUGGCUAGACCGCC [G1U G2U C15A G29U U43C] | 0.06
GGGAGAGCUCAUCACAGCGUGGCAAAGUGGCUGUGCCUAGACUACC [C3G A12U G36C G44A] | 0.26
GGCAGAGCUCAACACAGCGCGGAAAAGUGACUGUCGCUAGACUGCC [U20C C23A G30A G35C] | 0.1
GGCAGAGAUCAAGACAACGAGGCAAAGUGGCUGUUGCUAGACUGCU [C8A C13G G17A U20A G35U C46U] | 0.05
GGCAGAGUUCAACACAGUGUGGCUAACUGGCUGUGGCUAGACUGCC [C8U C18U A24U G27C] | 0.02
GGCAGAGCUCAACACGGCGUGGCAAACUGGCUGUGGCUAGACUACC [A16G G27C G44A] | 0.08
GGCAGAGCUCAACAAAGCGUGUCAAAGGGGCUGUGGCUCGACUGCC [C15A G22U U28G A39C] | 0.03
GGCGGAGUUCAACACAGGGUGACAAAGUGGUUGUGGCUAGACUGCC [A4G C8U C18G G22A C31U] | 0.05
GGCAUAGCUCAACACAGCGUGGCAAAGUGGCUGUGCCUAUACUGCC [G5U G36C G40U] | 0.05
GGCAGAGCUCAACACAGCGUGGCAAAGGGCCUGUGUCUAGACUGCC [U28G G30C G36U] | 0.22
GGCAGAGCUCAACACAGCGUGGCGAAGUGGCUGUGGCUAGAGUUCC [A24G C42G G44U] | 0.02
GGCAGGGCUCAACACAGCGUGGCAAAGUUGCUGUUGCUAGACUGCC [A6G G29U G35U] | 0.04
GGCAAAGCUCAACACAGCGUGGCAAAUUGGCUUUGGCAAGACUGCC [G5A G27U G33U U38A] | 0.03
GGAAAAGCUCAACACAGCGUGGCAAAGUCGCUGUGGCUAGACUGCC [C3A G5A G29C] | 0.05
GGCUGAGCUCAACAAAGUGUGGCAAAGUGGCUGUGGCUAGACUGCU [A4U C15A C18U C46U] | 0.01
GGCAGAGCUCAAGACAGCGUGGAAAAGUGGCUUUGGCCAGACUGCC [C13G C23A G33U U38C] | 0.07
GGGAGAGCUCAGAACAGCGUGGCAAAGUGGCUGUGGCUAGACUGGC [C3G A12G C13A C45G] | 0.01
GGCAGAGCUCAACCACGCGUGGCAAAGUGGCUGUGGCUAGACUGCC [A14C C15A A16C] | 0.03
GGCAGAGCUCAACACAGCGGGGGAAAGUAGCUGUGGCUAGACUGCC [U20G C23G G29A] | 1.04

Variant | self-cleavage
GCCAUAGCUCAACACACCGUGGCAAAGUGGCUGUGGCUAGAAUGCC [G2C G5U G17C C42A] | 0.01
GGUAGAGCUACACACAGCGUGGCAAAGUGGCUGUGCCUAGACUUCC [C3U C10A A11C G36C G44U] | 0.01
GGCAGAGCUCAACACAGCGUGGCAAAUUGGCUGUGGCCAGCCUGCC [G27U U38C A41C] | 0.02
GGCAGAGCUCAACACAGCGUGGCAAAGUGUGUGUGACUACACAGCC [G30U C31G G36A G40C U43A] | 0.04
GGCAGAACUCACCACAACGAGGCAAAGCGGCGGUGGCUAGACUGCC [G7A A12C G17A U20A U28C U32G] | 0.03
GGCAGAGCUCAACACCGCGUGGCAAAGUGGCUGUUACUAGACUGCC [A16C G35U G36A] | 0.04
GGCAGAGCUCAACACAGUGUGGCAAAGUUGCUGGGACUAGACUGCC [C18U G29U U34G G36A] | 0.05
GGCAGAGCGCAACUUAGCGUGGCAAAGUGGCCGUGGCUAGACUGCC [U9G A14U C15U U32C] | 0.11
GGCAGAGCUCAUCACAGCGUGGCAAAGUGGGUGUGGCUCGACUGCC [A12U C31G A39C] | 0.01
GGCAGAGCUAAACACAGCGUGGCAAAGUGGCUGUGGCUAGACAGCA [C10A U43A C46A] | 0.01
GGCAGAGCCCAACACAACGUGGCAAAGUGGCUGUGGCUAGAUUGCC [U9C G17A C42U] | 0.06
GUCAGAGCUCAACACAGCGUGGCAACGUCGCUGUGGCUAGACUGCC [G2U A26C G29C] | 0
GGCAGAGCUCAACAGAGCGUGGCAAAGUGGCUGUGGCUAGAAUCCC [C15G C42A G44C] | 0.02
GGCUGAGCUCAACACAGCGUGGCAAAGUCGCUGUGGAUAGACUGCC [A4U G29C C37A] | 0.02
GGCAGAGCUCCAAACAGCUUGGCGAAGUGGCUGUGGCUAGACUGCC [A11C C13A G19U A24G] | 0
GCCAAAGCUCAACACAGCGUGGCAAAGUGGCUGAGGCUAGACUGCC [G2C G5A U34A] | 0.05
GGCAAAGCUCAACACAGCGUGGCAAAGUGGCUGUAUCUAGACCGCC [G5A G35A G36U U43C] | 0.09
GGCAGAGCUUAACACAUCGUUGCAAAGUGGCUGUGGCUAGACUGCC [C10U G17U G21U] | 0.81
GGCAGAGCUCAAUACAGCUCGGCACAGUGGCUGUGGCUAGACUCCC [C13U G19U U20C A25C G44C] | 0.01

Variant | self-cleavage
GGCAGAGCUCAAUACAGCGUGGCAUAGUGGCUGUGGCUAGACUGCA [C13U A25U C46A] | 0.27
GGCAGAGCUCAACACAGCGUGGCAAAGGGGCUAUGUCUAUACUGCC [U28G G33A G36U G40U] | 0.04
GGCAGAGCUCAACACAACGUGGCAAAGUUGCUGUGGCUAGGCUGCC [G17A G29U A41G] | 0.06
GGCAGAGCUCAACACAGCGUGCCAAAGUUGCUGUGUCUAGACUGCC [G22C G29U G36U] | 0.07
CGCAGAGCUCAACAAAGCGUGGCAAAAUGGCUGUGGCAAUGCGGCC [G1C C15A G27A U38A G40U A41G U43G] | 0.01
GGCAGCGCUGAACACAGCCUAGCAAAGUGGAUGUGGCUAGACUGCC [A6C C10G G19C G21A C31A] | 0.03
GGCAGAGCUCAACACACCGUGUCAAAGUGGCUGCAGCUAGACUGUA [G17C G22U U34C G35A C45U C46A] | 0.05
GGCAGAGCUCAUCACAGCGUGGCGAAGAGGCUGUGGCUAGACUUCC [A12U A24G U28A G44U] | 0.02
GGCAGAGCUUAACACCGCGUGGCAAAGUGGCUGUGGCUAGACGGCC [C10U A16C U43G] | 0
GGCAGAGGUCAACACAGCGUGGAAAAGGGGCUGUGGCUAGGCUGCC [C8G C23A U28G A41G] | 0.42
GUCAGAGCUCACCACAGCGAGGCAAUGUGGCUGUGGCUAGACUGCC [G2U A12C U20A A26U] | 0.01
GGCAGAGCUAACCACAGCGUGGCAACGUGGCUGUGGCUAGCCUGCC [C10A A12C A26C A41C] | 0
AGCACAGUUUAACACAGCGUGGCAAAGUGGCUGUGGCCAGACUGCC [G1A G5C C8U C10U U38C] | 0.07
GACAGAGCUCACCACAGCGUGGCAAAGUGGCUCUGGCUAAACUGCC [G2A A12C G33C G40A] | 0.02
GGCAGAGCUCAACACAGCGUAGCAAAGUGGCUGUAUCUAGACUGCC [G21A G35A G36U] | 0.28
GGCAGAACUCACCACAGCGUGGCACAGUGGCUGUGGCUAGUCUGCC [G7A A12C A25C A41U] | 0
GGCACUGCUCACCACAGCGUGGCAAAGUGGCUGUGGCUAGACUGCC [G5C A6U A12C] | 0.03
UGCAGAGCUCAACACAGCGUGGCAAUGUCGCUGUGGCUAGACAGCC [G1U A26U G29C U43A] | 0.01
